This is an account of results in the supplement of paper PMC11417369.

± gives the standard deviation of the averaged measurements. This is one part of the list.

The test system of the test is PfAP2-G AP2 domain (GST-tagged). Nature of the test: gcPBM binding intensity (ln(normalized median fluorescence intensity)); higher = stronger DNA binding. The essentials: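 Probes on an Agilent 4 × 180k array were primer-extended, double-stranded and 36 bp long, taken from intergenic genomic regions, with negative controls added. GST-tagged P. falciparum DNA-binding domains from E. coli, about 25 μg on average, were applied to the array for 1 h in 1× PBS containing 1% milk, 0.2 mg/ml BSA, 0.5% salmon testes DNA and 0.03% Triton X-100. Binding intensity, obtained after Alexa488 anti-GST antibody detection and a 488 nm scan, is the highest Masliner-normalised natural-log median intensity across replicate spots of either probe orientation.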
With “CAATACTAATTGTATACACACAAAAATATACCATAT [CACACA_site3326]”, the “gcPBM binding intensity (ln)” value is 10.3 ± 0.15.

Take “CCTTTATAAAAAAGTAGTACACAATGAATTTATAAT [XGTACX_site5523]”: the “gcPBM binding intensity (ln)” value was 11.8 ± 1.

On to “GAACCATTTTTTGGTATACACACGTAATTATATAAT [CACACA_site8552]”, for which the “gcPBM binding intensity (ln)” value came to 10.3 ± 0.18. Turning to “TTTTTACATACAAATTAACACACATATAGAAAAGAG [CACACA_site8570]”, the “gcPBM binding intensity (ln)” value is 10.5 ± 0.4. On to “AATTGATACCTTACATGTACATAATATATATAAATA [XGTACX_site321]”, for which the “gcPBM binding intensity (ln)” value turned out to be 11.2 ± 0.72. Turning to “AAATTATTTATATGTTGTACTTATCCATTTTTATAA [XGTACX_site7441]”, the “gcPBM binding intensity (ln)” value worked out at 11.2 ± 0.68. Then “TATATTTATAGACACACACACAAAAAAAAAAAAAAA [CACACA_site6818]”, with 9.93 ± 0.49; and “TAATTTTTTTTATTATGTACTTAATAAATGTTAATT [XGTACX_site365]”, with 11.2 ± 0.96. Regarding “TATTTATAATTAAATACACACATATATTATATATTT [CACACA_site616]”, the “gcPBM binding intensity (ln)” value is 9.83 ± 0.014.

As for “AATAAACATATATGTACACACATATACATATATATA [CACACA_site2848]”, the “gcPBM binding intensity (ln)” value came to 11.4 ± 1.2. Turning to “TTTTTTTTTAATTATGCATGTAAATTATATATTATA [TGCATGCA_site335]”, the “gcPBM binding intensity (ln)” value worked out at 9.8 ± 0.15.

In the case of “AAGAATGTTATATTATGATGCTGTCTTTTTTTAAGA [CACACA_negctrl_site251]”, the “gcPBM binding intensity (ln)” value was 9.715 ± 0.035. Turning to “ATAAAATATTATATATATATATATATATATATATAT [CACACA_negctrl_site215]”, the “gcPBM binding intensity (ln)” value is 10.1 ± 0.91. “TTAGCTACACGCTAATGTACACAAATACAAAGAAAA [XGTACX_site3993]”: the “gcPBM binding intensity (ln)” value came to 11.4 ± 0.71.

For “TATACGCATATATAAACACACAAAAAAAAAAAAAAA [CACACA_site2026]”, the “gcPBM binding intensity (ln)” value was determined as 9.8 ± 0.52. Then “TATATTAATTTATATCAACACACAAAATCAATATAC [CACACA_site8518]”, with 10 ± 0.28; and “ACATAAATAATAAAAACACACATATGTACTTATATA [CACACA_site8581]”, with 11.4 ± 0.87; and “TTATTAATTTTTATTTTTAAATCACAAAAGATATAA [CACACA_negctrl_site787]”, with 9.79 ± 0.32. “AAACAAAAAAACTACAGTACTTTTTTCAATTCCCCT [XGTACX_site7541]”: the “gcPBM binding intensity (ln)” value was 11.3 ± 0.71. Turning to “AAAATTAACCGTAACACACACACATATATATATATA [CACACA_site3964]”, the “gcPBM binding intensity (ln)” value was found to be 10.3 ± 0.47. Consider “TATATGTTTACTTAATGTACTTACATTTTTATAACA [XGTACX_site1100]”, for which the “gcPBM binding intensity (ln)” value was found to be 11.4 ± 0.88. For “AAATTTTTAAACAGCACACATAAATATAATATATAT [CACACA_site2208]”, the “gcPBM binding intensity (ln)” value was found to be 9.99 ± 0.085.

As for “CATATTTGTATATGCACACATAAATTTTTCCATTTC [CACACA_site3467]”, the “gcPBM binding intensity (ln)” value is 10.1 ± 0.071. For “GACATTAAAATGAAATATACATATATATGTATATAT [TGCATGCA_negctrl_site601]”, the “gcPBM binding intensity (ln)” value is 9.635 ± 0.049.

With “TTACATTTTTGAAATAGATACATACACGTGTATGTA [CACACA_negctrl_site1311]”, the “gcPBM binding intensity (ln)” value was 9.975 ± 0.092. In the case of “GCTATATATTACAATCGTACAATATATATATATATA [XGTACX_site6730]”, the “gcPBM binding intensity (ln)” value stood at 10.8 ± 0.68. In the case of “AATTGAAAAATCAGCACACACACAAATACATACATA [CACACA_site3232]” it was 10.3 ± 0.31; in that of “TGGTAATACACATACACACACACATACACATATATA [CACACA_site7312]”, 10.3 ± 0.29; in that of “ATATATATATATATTACACACATGTGCAATTAAAAT [CACACA_site1778]”, 10.2 ± 0.28. Take “AATATAAGAATATATACACACATAAATACATACATA [CACACA_site4128]”: the “gcPBM binding intensity (ln)” value was 9.91 ± 0.16. As for “TTTTTAAAACCTTACATACACACAAATATATATATA [CACACA_site678]”, the “gcPBM binding intensity (ln)” value was 10.2 ± 0.41. In the case of “TGAATTCATAGCAGTTGTACATTGCATGAAGAAACG [XGTACX_site3312]”, the “gcPBM binding intensity (ln)” value was 11 ± 0.63. In the case of “TGTTCCGAAGGTTGTACACACATAGAAATATACATA [CACACA_site3874]” it was 11.6 ± 0.74. Regarding “TCTTGTATACGGCATGCATGTTAGCACATACGGACA [TGCATGCA_site146]”, the “gcPBM binding intensity (ln)” value turned out to be 10.9 ± 0.59. In the case of “TATAAAATATGTATGAGGAATAAAATTAAAAAAAAA [TGCATGCA_negctrl_site178]” it was 9.77 ± 0.071. “AAAAAAAAAAATTCGGTGCAATGTAATTAATGTAAA [GTGCAC_site9588]”: the “gcPBM binding intensity (ln)” value came to 9.82 ± 0.071. Then “AATACTTTTTATTTAGTGCATAAGAAAATATAAATC [GTGCAC_site9875]”, with 10.2 ± 0.18; and “ATGGATAATAATAAGTGTACACATATATTTAGAAGA [XGTACX_site244]”, with 11.8 ± 0.86. Consider “GGTAGAAAATCAGTTAAACACACACCGAAAAAAAAA [CACACA_site8934]”, for which the “gcPBM binding intensity (ln)” value was 10.1 ± 0.2. Take “ATTTGTATAATAAGTTGTACAATTCTTACAATATAA [XGTACX_site4164]”: the “gcPBM binding intensity (ln)” value turned out to be 11.3 ± 0.73. In the case of “AAAAAAAAAAAAAGCACACACACATATGCGTATATA [CACACA_site953]”, the “gcPBM binding intensity (ln)” value came to 10.34 ± 0.057. Regarding TTTAAGCGTTCACTGCTGCACTTTTATGTTGTGACC, the “gcPBM binding intensity (ln)” value amounted to 10.35 ± 0.099.

“TTACAAATGTAGAAAAGTACATATAATAATAATTTA [XGTACX_site3044]”: the “gcPBM binding intensity (ln)” value turned out to be 11.3 ± 0.83. Consider “TATAAGAAATAAAACCTGATTATAAACCTGTAACCA [CACACA_negctrl_site1302]”, for which the “gcPBM binding intensity (ln)” value turned out to be 9.79 ± 0.11.
